Test results published in publication PMC4336329 (PLoS ONE, 2015).
Hit rate of the full screen: of about 310,000 compounds, about 14,000 (4.5%) showed an effect of 50% or more. Effects have a minus sign here. The list shows a part of the results.

Target: human ether-à-go-go-related gene (hERG) potassium channel (human, UniProt Q12809)
Experiment: primary screen, population patch clamp on CHO cells stably expressing hERG
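Further: peak tail current of the secondary pulse compared with the same well before compound.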

human ether-à-go-go-related gene (hERG) potassium channel, sequence (Q12809 whole entry, looked up): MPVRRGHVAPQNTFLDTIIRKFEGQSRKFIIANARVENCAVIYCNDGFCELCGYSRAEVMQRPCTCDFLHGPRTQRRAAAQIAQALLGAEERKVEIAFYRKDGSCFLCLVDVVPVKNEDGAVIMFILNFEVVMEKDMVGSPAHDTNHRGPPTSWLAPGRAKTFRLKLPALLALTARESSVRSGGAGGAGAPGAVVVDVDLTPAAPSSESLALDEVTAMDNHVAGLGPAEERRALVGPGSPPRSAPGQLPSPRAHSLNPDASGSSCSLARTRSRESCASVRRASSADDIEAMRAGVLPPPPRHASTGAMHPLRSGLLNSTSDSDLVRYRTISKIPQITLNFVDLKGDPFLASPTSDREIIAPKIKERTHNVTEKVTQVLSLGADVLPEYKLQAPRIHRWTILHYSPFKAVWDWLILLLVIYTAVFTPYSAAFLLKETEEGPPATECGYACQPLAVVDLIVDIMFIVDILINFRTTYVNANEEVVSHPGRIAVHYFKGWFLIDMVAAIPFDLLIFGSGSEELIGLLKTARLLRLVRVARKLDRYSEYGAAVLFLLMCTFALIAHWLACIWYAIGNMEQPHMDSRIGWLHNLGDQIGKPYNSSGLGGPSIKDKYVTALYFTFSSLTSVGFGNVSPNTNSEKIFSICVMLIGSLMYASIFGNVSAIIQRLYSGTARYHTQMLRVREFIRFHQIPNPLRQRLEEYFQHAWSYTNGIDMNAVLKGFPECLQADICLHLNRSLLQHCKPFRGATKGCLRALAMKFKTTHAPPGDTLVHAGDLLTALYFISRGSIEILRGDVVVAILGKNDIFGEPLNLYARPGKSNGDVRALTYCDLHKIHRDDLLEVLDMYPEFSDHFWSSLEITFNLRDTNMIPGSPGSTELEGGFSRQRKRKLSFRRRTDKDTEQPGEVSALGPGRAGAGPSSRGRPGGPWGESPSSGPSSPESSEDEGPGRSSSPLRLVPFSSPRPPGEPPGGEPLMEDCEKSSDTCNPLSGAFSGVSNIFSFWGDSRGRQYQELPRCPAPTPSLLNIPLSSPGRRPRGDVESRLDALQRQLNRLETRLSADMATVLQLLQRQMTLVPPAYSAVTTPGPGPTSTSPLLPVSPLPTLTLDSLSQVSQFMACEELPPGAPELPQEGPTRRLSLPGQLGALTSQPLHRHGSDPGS

SMILES | hERG current change (%, negative = inhibition) at 10uM [%]
CN(C)c1c2ccccc2nc2c(F)c(F)c(F)c(F)c12 | 20.4
O=C(c1ccc2c(c1)OCO2)N1CCN(S(=O)(=O)c2ccc(Cl)cc2)CC1 | -14.9
Cc1ccc2[nH]cc(CCNC(=O)c3ccco3)c2c1 | 5.43
O=C(O)c1ccc(CSc2nc(-c3ccc(Cl)cc3)cc(C(F)(F)F)n2)cc1 | 10.1
COc1ccc(OC)c(CNC(=O)C2CCN(S(C)(=O)=O)CC2)c1 | 11.7
O=C(c1ccc2nccnc2c1)N1CCN(c2ccccc2)CC1 | 6.91
O=c1cc(/C=C/c2ccccc2)oc2ccccc12 | -7.45
O=C(CSc1nnc(C2CC2)n1-c1ccccc1)NCCc1ccc(F)cc1 | -42.5
COc1ccccc1NC(=O)Cc1noc(CSc2cc(C)c3ccccc3n2)n1 | 5.59
O=C1CNC(=O)/C1=C/c1ccc(Br)cc1 | 16.7
Cc1ccc(Nc2nc(N3CCOCC3)nc(N3CCOCC3)n2)cc1Cl.Cl | 2.7
c1ccc(Cn2c(SCc3cn4cccnc4n3)nnc2-c2ccco2)cc1 | -36.6
CCOC(=O)c1c(CN2CCOCC2)n(-c2ccccc2)c2cc(Br)c(OC)cc12 | 3.27
O=C(NCC1CCCO1)C(c1ccc(F)cc1)N(CC1CCCO1)C(=O)c1ccc(-c2ccccc2)[nH]1 (stereo not shown) | -43.7
CC1=NN(C(=O)c2ccc(Cn3nc(C)c([N+](=O)[O-])c3C)o2)C(O)(C(F)(F)F)C1 (stereo not shown) | -52.8
CCN(CC)S(=O)(=O)c1ccc(NC(=O)CCC2CCCCC2)cc1 | -0.899
CCOC(=O)CSc1nc(-c2ccccn2)ncc1OC | -0.684
O=C(COC(=O)/C=C/c1ccc(OC(F)F)cc1)Nc1ccc(S(=O)(=O)N2CCCC2)cc1 | -2.12
CCC(=O)c1ccc(OCC(=O)Nc2ccccc2N2CCCCC2)cc1 | 10.7
CCOc1ccc(NC(=O)CN(C)C(=O)Cc2sc(C)nc2-c2ccc(F)cc2)cc1OCC | -21.3
COc1ccc(S(=O)(=O)N(C(=O)c2ccncc2)c2ccc(OC(=O)c3ccncc3)cc2)cc1 | -16.9
O=C(NC1CC1)c1ccc(S(=O)(=O)NCC2CCCCC2)cc1 | 11.6
COc1cccc(Oc2ccc(C(F)(F)F)cc2NC(=O)c2cccc(F)c2)c1 | -4.24

SMILES | hERG current change (%, negative = inhibition) at 10uM [%]
Cc1cc(C)c(C)c(S(=O)(=O)N2CCN(C(=S)NCC3CCCO3)CC2)c1C (stereo not shown) | 12.2
O=C(c1ccncc1)N1CCN(C(=O)c2ccncc2)CC1 | 12
Cc1ccc(NC2CCCN(C(=O)c3cn(C)c4ccccc34)C2)cc1C (stereo not shown) | -37.2
O=C(CSCCO)Nc1nccs1 | 0.403
CN1C(=O)/C(=C/c2ccc(OCc3ccccc3F)cc2)N(C)C1=S | 19.5
O=c1cc(Cl)[nH]c(=O)n1Cc1ccccc1 | 21.9
Cc1cccc(NC(=O)NNC(=O)c2sccc2-n2cccc2)c1 | 21.6
COc1ccccc1CNS(=O)(=O)c1ccc2c(c1)CC(=O)N2C | -6.11
O=C(COc1ncnc2ccccc12)Nc1ccc(Cl)c([N+](=O)[O-])c1 | -7.85
Cn1c(=O)c2sccc2n(Cc2cccc(Br)c2)c1=O | -0.501
Cc1cc(NC(=O)COC(=O)CCNS(=O)(=O)c2c(Cl)cccc2Cl)no1 | -6.95
CC(C)Oc1ccc(CCC(=O)NNC(=S)NCc2ccccc2)cc1 | 4.51
CC(=O)C(Sc1nnnn1-c1ccccc1)C(C)=O | 18
COc1cc(Br)cc(CN2CCN(c3ncccn3)CC2)c1O | 9.04
CCCCC(=O)Nc1cc(OC)c(NC(=S)NC)cc1OC | 48.4
COc1cccc(C2/C(=C(\O)c3ccc(OC)c(OC)c3)C(=O)C(=O)N2c2cc(C)on2)c1 (stereo not shown) | 7.85
COc1ccccc1CCNC(=O)CCn1nc(C)c2c(C)n(-c3ccccc3)nc2c1=O | 0.155
O=c1ccc(-c2ccc(S(=O)(=O)N3CCN(c4cccc(Cl)c4)CC3)o2)n[nH]1 | 10
Cn1c(CO)cnc1SCC(=O)c1ccc(Cl)cc1 | 11.3
CC(C)CCNc1cc(=O)n(C)c(=O)n1C | 4.5
CSC1=NP(=S)(SC)N(C)c2nc3n(c21)CCC3 (stereo not shown) | -4.71
CC(=O)c1ccccc1NC(=O)COC(=O)/C=C/c1cccs1 | 11.7
O=C(NCC1CCCCC1)c1ccc(Cl)c(S(=O)(=O)N2CCOCC2)c1 | -39.3

SMILES | hERG current change (%, negative = inhibition) at 10uM [%]
O=C(/C(=C/O)N=Nc1ccccc1)c1ccc(Cl)cc1 | 11.7
Cc1c(C)c2c(OCC(=O)O)cc3c(c2oc1=O)CCC(C)(C)O3 | 19.6
CCOc1cccc(/C(O)=C2/C(=O)C(=O)N(CCOC)C2c2ccncc2)c1 (stereo not shown) | 9.53
COc1cc(OC)cc(C(=O)N[C@H](C(=O)OCC(=O)NC(=O)c2cccn2C)C(C)C)c1 | 7.96
Cc1cccc(NC(=O)N2CCCCCC2)c1 | -8.87
O=C(NCc1ccco1)C(c1ccc(F)cc1)N(Cc1cccnc1)C(=O)Cn1nnc2ccccc21 (stereo not shown) | -17.6
CC(C)c1ccc2nc(NC(=O)C3CC3)sc2c1 | -55
N#C/C(=C/c1cccc(C(F)(F)F)c1)c1nc(CCN2C(=O)c3ccccc3C2=O)cs1 | -0.904
CC(CC(=O)N1CCc2ccccc21)n1cccn1 (stereo not shown) | 6.25
O=C(Cn1cccc1C(=O)c1ccccc1)NCc1ccccc1 | 3.9
CC(C)CC(=O)Nc1c2c(nn1-c1ccc(F)cc1)CS(=O)(=O)C2 | 8.51
Cc1cc(-c2nnc3sc(C4CCCCC4)nn23)n[nH]1 | -16.4
COc1ccc(/C(=N\Nc2ccccc2C(=O)O)c2ccccc2)cc1 | 0.149
O=C(NCCCN1CCOCC1)C1(c2ccccc2)CCCC1 | 15.9
Cc1ccccc1NC(=O)COC(=O)CCc1ccccc1 | 15.7
Cc1cc(C)c(C(=O)COC(=O)C2CC3CCCC(C2)C3=O)c(C)c1 (stereo not shown) | -9.23
CCCCc1[nH]c(=O)c(C#N)c2c1CCCC2 | 1.62
COc1ccccc1N1CCN(C(=O)NCc2cccc(C(F)(F)F)c2)CC1 | -23.6
COCCNC(=O)CCCN1C(=O)c2ccccc2Sc2ncccc21 | 20.9
CC(=O)c1ccc(N2CCN(S(=O)(=O)c3ccc4c(c3)NC(=O)CC(=O)N4)CC2)cc1 | 13.4
CCOC(=O)N1CCN(C(=O)Cn2c(=O)sc3ccccc32)CC1 | 4.02
S=C(Nc1ccc(Cl)cc1)NC1CCN(Cc2ccccc2)CC1 | -39.9
CC(C)CCNC(=O)CN(C(=O)CCC(=O)Nc1nccs1)C1CCCCC1 | -5.84

SMILES | hERG current change (%, negative = inhibition) at 10uM [%]
Cc1ccc(N=c2ssnc2Cl)cc1 | 17.5
COc1cc(CN2CCN(c3cccc(C)c3C)CC2)cc(Br)c1O | -12.6
Cc1ccc(Nc2ccc(C(=O)N3CCCC3)cn2)c(C)c1 | -4.75
COc1ccc(NS(=O)(=O)c2ccc3oc(SC)nc3c2)cc1 | -2.22
CCCCC(NC(=O)Cc1c(C)c2cc3c4c(oc3c(C)c2oc1=O)CCCC4)C(=O)O (stereo not shown) | 3.35
CC1c2ccsc2CCN1C(=O)NC(=O)c1ccc(Cl)cc1 (stereo not shown) | 5.59
CC12CCC(C(=O)NCCCN3CCOCC3)(OC1=O)C2(C)C (stereo not shown) | 13.9
Cl.O=C(O)c1cccc(Nc2nc(-c3cccnc3)nc3ccccc23)c1 | 4.75
O=C(COc1ccccc1)NCC(=O)Nc1ccncc1 | 1.26
NC1=NC[C@H](c2ccccc2)N1CC1CCCCC1 | -0.543
CCOC(=O)Cc1csc(NC(=O)c2ccc(Cl)s2)n1 | -1.6
CN1CCC(N(C)C(=O)CCc2nc3ccccc3c(=O)[nH]2)CC1 | 8.31
CCOC(=O)Cc1csc(N/N=C/c2ccccc2)n1 | -5.17
COc1cc2c(cc1OC)CN(Cc1ccc(OC)c(C)c1OC)CC2 | -43.6
COc1ccc(OC)c(C2CC(=O)N3CN(c4ccc(C)c(Cl)c4)CSC3=C2C#N)c1 (stereo not shown) | 19.4
O=C1OC(N2CCN(c3ccccn3)CC2)c2ccccc21 (stereo not shown) | 6.7
O=C(NNC(=O)C1CC1)c1cccc([N+](=O)[O-])c1 | 1.1
O/C=c1\ccc2cccc3nc(C(F)(F)F)nc1c23 | 10.1
CCOC(=O)C1CCCN(S(=O)(=O)c2ccc3c4c2CC(=O)N4CC(C)S3)C1 (stereo not shown) | -0.356
NNC(=O)C(=O)Nc1ccc(O)cc1 | 10.3
FC(F)(F)c1nnc(-c2ccccc2)nc1Sc1ccc(Cl)cc1 | 20.1
O=C(CSc1nnc(-c2ccccn2)o1)Nc1cccc(Cl)c1 | 8.36
